Results on four substances are retold here after US20050059584A1, “Novel chemokine mimetics synthesis and their use” (priority 2002, published 2005).

The target in data set [1] is T1, CXCR4 receptor (Homo sapiens, UniProt P61073).
T1 construct: incubation of THP-1 cells with SDF-1; endogenous in cells; host or cells: THP-1 cells
In words: [Ca2+]i mobilization in fura-2,AM loaded THP-1 cells (FIG. 5, Table 6). The data set is classed as cell-based. As to conditions: 1×10^6/ml. The method, then: Fura-2,AM loaded THP-1 cells (1×10^6/ml) were stimulated with SDF-1, Compound A or Compound K at the concentrations indicated. The values represent the mean ± one S.D. of n=3 experiments.
Fura-2,AM loaded THP-1 cells (1×10^6/ml) were stimulated with native SDF-1 and the SDF-1 peptide analogs at the concentration of native SDF-1 concentration that gave the maximum [Ca^2+]1 stimulation (1 μM). The values represent the mean ± one S.D. of n=3 experiments.
This example illustrates the efficacy of SDF-1 and SDF-1 peptide analogs in mediating intracellular calcium mobilization ([Ca^2+]i). To illustrate that the binding of SDF-1 and SDF-1 peptide analogs results in the agonistic induction of the CXCR4 receptor, [Ca^2+]i mobilization assays were conducted, the results of which are shown in FIG. 5. To obtain the data shown in FIG. 5, fura-2,AM loaded THP-1 cells (1×10^6/ml) were stimulated with Compound A/SDF-1, SDF-1(1-14)-(G)4-SDF-1(55-67) Lys20/Glu24-cyclic amide (SEQ ID NO:809) or Compound K/SDF-1(1-14)-(G)4-SDF-1(55-67)-Glu24/Lys28-cyclic amide (SEQ ID NO:803) at the concentrations indicated (the values represent the mean ± one S.D. of n=3 experiments). […] The EC50 values (the concentration of ligand necessary to effectively induce 50% of the full [Ca^2+]i mobilization potential) for SDF-1(1-14)-(G)4-SDF-1(55-67) acid (SEQ ID NO:806), SDF-1(1-14)-(G)4-SDF-1(55-67)-Lys20/Glu24-cyclic amide (SEQ ID NO:809) or SDF-1(1-14)-(G)4-SDF-1(55-67)-Glu24/Lys28-cyclic amide (SEQ ID NO:803) and native SDF-1 is shown in Table 6: […]

Data set [2] concerns Primitive BFU-E. In words: 3H-thymidine suicide assay of primitive BFU-E in adherent layer of human LTC (Table 7). The data set is classed as cell-based. As to conditions: None: 48 +/− 4. The source says:
(§1) Primitive high proliferative potential colony forming cells (HHP-CFC) in an adherent layer in culture are usually in a quiescent state. This long term culture (LTC) is established seven to ten days after initiation of the LTC. The cells may be stimulated to proliferate by the addition of fresh medium. Both BFU-E (burst forming unit—erythroid precursor) cells and CFU-GM (colony forming unit—granulocyte-monocyte common precursor) cells of LTC may be maintained in a quiescent state by the mesenchymally derived stromal cells in an adherent layer, but can be reversibly stimulated into the cycle by the addition of fresh media. The ability of CXCR4 agonists such as SDF-1 and SDF-1 polypeptides to overcome this activation may be determined by adding it to the LTC during the medium change. Rapidly dividing cells will accumulate proportionally more of a cytotoxic agent, such as radioactive thymidine, and as a result are preferentially killed.
(§2) The results depicted in Table 7 illustrate the ability of SDF-1, and SDF-1(1-14)-(G)4-SDF-1(55-67)-Lys20/Glu24-cyclic amide (SEQ ID NO:809) and SDF-1(1-14)-(G)4-SDF-1(55-67) acid (SEQ ID NO:806) to repress the proliferation of clonogenic erythroid and granulopoitic progenitors (which differentiate into erythrocytes, platelets, monocytes/macrophages and neutrophils) in an in vitro LTC-IC (long-term culture-initiating cells) assay. […]

For data set [3], the system named is Primitive CFU-GM. In words: 3H-thymidine suicide assay of primitive CFU-GM in adherent layer of human LTC (Table 7). As to conditions: None: 44 +/− 3. The data set is classed as cell-based.
Source text: as §1, §2

Data set [4] can be described thus: stability in human plasma (Table 3). Particulars: 37° C. The data set is classed as in vitro ADME. The method, then:
This example illustrates the stability of SDF-1 chemokine analogs (as represented by Compound A (SEQ ID NO:809) and Compound B (SEQ ID NO:810)) in human plasma.
Fresh blood was collected into heparinized tubes and spun down at room temperature for 15 minutes at 1500 g, and the plasma was removed and placed in another tube. The plasma was then cooled to 4° C. by incubation on ice, and centrifuged for 15 minutes at 1500 g at 4° C. The plasma was recovered and used immediately and the leftover was frozen at −20° C.
Fractions of 0.5 ml of human plasma were aliquoted in eppendorf tubes and incubated in a heated bath at 37° C. A quantity of 200 μg of Compound B (SEQ ID NO:810) or Compound A (SEQ ID NO:809) in water (10 μg/μL in water) was added subsequently to each fraction and incubated for T=0, 5, 10, 20, 30, 60, 120, 240, 360 and 420 minutes. At the end of the incubation, the fractions were quenched by the addition of 0.20 ml 1M trifluoroacetic acid (TFA) and the tubes agitated gently and kept on ice for 10 minutes. The tubes were then diluted further with 200 μL of a 0.05% solution of TFA.
The samples were then centrifuged at 5000 rpm for 45 min at 4° C. The supernatants were extracted on solid phase.
Sep-pak C 18 cartridges (VWR #BJ9000, 100 mg, 1 ml, octadecyl column C18)) were preconditioned with 80% acetonitrile/0.1% TFA (5×1 ml) followed by TFA 0.05% (5×1 ml). The quenched (acidified) plasma samples were aspirated and applied to the column, and washed with 2×1 ml of TFA 0.05% (eluate discarded) followed by extraction with 5×1 ml of (80% acetonitrile/0.1% TFA). The samples were then frozen and lyophilized.
Dry residue was resuspended in 200 μL of (20% acetonitrile/0.1% TFA) and spun down in a centrifuge to clarify the sample by centrifugation at 5000 rpm for 15 minutes at 22° C. before loading 50 μL on HPLC.
HPLC analysis was performed on the Gilson using the following column, mobile phase, and detection systems.

Data set [5] relates to Primitive Erythroid bone marrow progenitor cells. The data set can be described thus: 3H-thymidine killing of primitive erythroid bone marrow progenitor cells. The format is cell-based, human. As to conditions: Table 5, no drug 47 +/− 4.
For data set [6], the system named is Primitive Granulocyte bone marrow progenitor cells. In words: 3H-thymidine killing of primitive granulocyte bone marrow progenitor cells. The format is cell-based, human. As to conditions: Table 5, no drug 42 +/− 3.
Data set [7] relates to Mature Granulocyte. In words: 3H-thymidine killing of mature granulocyte bone marrow cells. The data set is classed as cell-based, human. Particulars: Table 5, no drug 48 +/− 3.

pEC50: −log10 of the molar value. Positions of bridges follow the written chain, without caps; N, C: chain ends. No end group written: not given here.

T1 sequence (P61073 whole entry): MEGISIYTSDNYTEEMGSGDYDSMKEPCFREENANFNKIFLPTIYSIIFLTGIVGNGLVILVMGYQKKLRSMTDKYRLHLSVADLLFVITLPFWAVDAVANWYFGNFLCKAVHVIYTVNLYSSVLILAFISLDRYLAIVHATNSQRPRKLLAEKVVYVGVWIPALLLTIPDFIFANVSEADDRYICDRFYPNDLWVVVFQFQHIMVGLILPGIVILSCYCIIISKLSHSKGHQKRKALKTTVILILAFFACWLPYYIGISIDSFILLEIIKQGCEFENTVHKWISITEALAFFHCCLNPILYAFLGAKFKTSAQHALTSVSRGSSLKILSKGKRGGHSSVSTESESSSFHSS

One may read the pEC50 as −log10 of the EC50, conventionally taken in molar units. Low readings indicate a high EC50, high ones a low EC50. Take “SDF-1(1-14)-(G)4-SDF-1(55-67) acid (KPVSLSYRCPCRFFGGGGLKWIQEYLEKALN-OH; cysteine pairing not given here) [Compound L]”: the pEC50 in data set [1] was 6.73. The “% CELL KILLED after 3H-Thymidine” value in data set [2] (1 μg/ml) is on record as 24 +/− 6%; in data set [2] (10 μg/ml) it was 0 +/− 2%; in data set [3] (1 μg/ml) it was 22 +/− 7%; in data set [3] (10 μg/ml) it was 0 +/− 0%.
Turning to “Stromal cell-derived factor-1 [SDF-1, reference compound]”, the pEC50 in data set [1] is 7.58.
As to “H2N-Lys-Pro-Val-Ser-Leu-Ser-Tyr-Arg-Ala-Pro-Phe-Arg-Phe-Phe-[Gly-Gly-Gly-Gly]-Leu-Lys-Trp-Ile-Gln-Glu-Tyr-Leu-Glu-Lys-Ala-Leu-Asn-NH2 (H-KPVSLSYRAPFRFFGGGGLKWIQEYLEKALN-NH2; also: cyclic bridge, places not given here) [Compound B]”, the “Percentage of compound remaining in plasma” value in data set [4] (0 min) was 100%; in data set [4] (5 min) it was 67%; in data set [4] (10 min), 56%; in data set [4] (20 min), 67%; in data set [4] (30 min) it was 56%; in data set [4] (60 min), 77%. Besides, the “Percentage of compound remaining in plasma” value was 52% in data set [4] (120 min), 43% in data set [4] (240 min), 26% in data set [4] (360 min) and 17% in data set [4] (420 min). The “% CELL KILLED” value in data set [5] is on record as −7 +/− 6%; in data set [6], −11 +/− 7%; in data set [7] it was 44 +/− 6%.
As for “SDF-1(1-14)-(Gly)4-SDF-1(55-67)-Glu24/Lys28-cyclic amide (KPVSLSYRCPCRFFGGGGLKWIQEYLEKALN; lactam 24-28; cysteine pairing not given here) [Compound K]”, the pEC50 in data set [1] was 6.97.
